# Among all 310,000 compounds or so, about 14,000 (4.5%) showed an effect of 50% or more. The effect is printed as a negative number. Some of the results follow.
# Biological target: human ether-à-go-go-related gene (hERG) potassium channel (human, UniProt Q12809)
# Assay: primary screen, population patch clamp on CHO cells stably expressing hERG
# 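Also: peak tail current of the secondary pulse compared with the same well before compound.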
# Sequence of human ether-à-go-go-related gene (hERG) potassium channel (Q12809 whole entry, looked up): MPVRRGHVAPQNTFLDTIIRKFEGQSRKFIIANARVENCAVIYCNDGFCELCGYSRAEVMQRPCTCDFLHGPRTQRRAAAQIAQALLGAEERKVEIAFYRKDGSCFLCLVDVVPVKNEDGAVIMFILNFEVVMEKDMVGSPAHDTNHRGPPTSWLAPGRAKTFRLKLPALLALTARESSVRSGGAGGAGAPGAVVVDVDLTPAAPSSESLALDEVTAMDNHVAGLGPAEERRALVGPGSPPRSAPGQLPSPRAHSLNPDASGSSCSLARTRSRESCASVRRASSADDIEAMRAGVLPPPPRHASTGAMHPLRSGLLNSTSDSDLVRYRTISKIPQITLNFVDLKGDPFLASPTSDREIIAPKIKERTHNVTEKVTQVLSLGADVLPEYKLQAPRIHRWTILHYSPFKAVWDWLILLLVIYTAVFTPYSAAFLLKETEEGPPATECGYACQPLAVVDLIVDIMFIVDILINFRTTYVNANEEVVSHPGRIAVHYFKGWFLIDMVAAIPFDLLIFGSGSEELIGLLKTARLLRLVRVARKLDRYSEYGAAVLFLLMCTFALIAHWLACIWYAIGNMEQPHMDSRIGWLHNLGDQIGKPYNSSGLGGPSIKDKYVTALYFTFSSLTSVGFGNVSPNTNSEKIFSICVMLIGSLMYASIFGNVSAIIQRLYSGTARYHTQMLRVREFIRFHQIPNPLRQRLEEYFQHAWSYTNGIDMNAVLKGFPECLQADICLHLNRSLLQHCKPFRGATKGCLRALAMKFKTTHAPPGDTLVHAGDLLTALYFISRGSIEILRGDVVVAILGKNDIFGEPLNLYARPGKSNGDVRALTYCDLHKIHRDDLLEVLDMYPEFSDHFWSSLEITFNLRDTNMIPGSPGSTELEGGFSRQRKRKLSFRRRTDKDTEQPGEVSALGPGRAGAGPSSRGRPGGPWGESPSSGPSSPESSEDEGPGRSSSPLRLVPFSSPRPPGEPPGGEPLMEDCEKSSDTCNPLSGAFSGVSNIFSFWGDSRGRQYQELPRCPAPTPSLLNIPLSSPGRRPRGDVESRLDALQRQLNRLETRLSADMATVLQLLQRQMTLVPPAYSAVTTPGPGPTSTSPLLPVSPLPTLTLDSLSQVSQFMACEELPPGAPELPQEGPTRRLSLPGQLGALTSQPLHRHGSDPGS
row,SMILES,"hERG current change (%, negative = inhibition) at 10uM"
1,COc1ccc([C@H]2CC(=O)C=C(c3ccc(Cl)c(C(F)(F)F)c3)C2)cc1OC,18%
2,O=C(NCc1cccs1)c1cc2c(s1)CS(=O)(=O)C2,-0.732%
3,Cc1cc(NC(=O)C2CC(=O)N(c3ccc(Cl)cc3)C2)no1 (centres unmarked),-11%
4,CCOC(=O)C(C(=O)NCc1ccc(F)cc1)c1ncc(C(F)(F)F)cc1Cl (centres unmarked),-7.37%
5,CCCCC(c1nnnn1CC1CCCO1)N1CCN(c2ccccc2)CC1.Cl (centres unmarked),9.63%
6,CC(=O)N1CCN(c2cccc(C)c2C)CC1,-0.674%
7,COc1ccc(OCC(=O)N/N=C(\C)c2ccc(-n3ccnc3)cc2)cc1,-42.6%
8,CSc1c(C#N)sc(=S)n1-c1ccc(C)cc1,-12.9%
9,Cc1cc(C(=O)COC(=O)c2ccccc2NCCO)c(C)n1CC1CCCO1 (centres unmarked),-18.2%
10,Cc1cc(C)c2cc(C#N)c(NCCNC(=S)NCCCN3CCOCC3)nc2c1,-4.45%
11,COc1ccc(NC2c3ccccc3C(=O)N2Cc2ccccc2Cl)cc1OC (centres unmarked),-24.2%
12,CC(C)(C)C(=O)N1CCN(c2ccc([N+](=O)[O-])cc2-n2cccc2)CC1,-26.3%
13,Cc1ccc(S(=O)(=O)N2CCCOC2CNC(=O)C(=O)NC2CCCCC2)cc1 (centres unmarked),1.38%
14,CCC1Sc2ccccc2N(CC(=O)NCc2ccccc2OC)C1=O (centres unmarked),0.413%
15,Cc1onc(-c2ccccc2)c1C(=O)N1CCCSC1=Nc1ccccc1,8.14%
16,O=C(CCCOc1ccc(Cl)cc1)Nc1cccc(C(=O)O)c1,13%
17,CCOC(=O)CN(C(=O)CNC(=O)c1cccs1)C(C(=O)NC1CCCCC1)c1cccnc1 (centres unmarked),6.29%
18,Cc1ccc(C(C)C)c(OCCCCCN2CCOCC2)c1,-24.1%
19,Cc1cc(/C=C(\C#N)C(=O)Nc2ccc(Cl)cc2)c(C)n1-c1ccc(N2CCOCC2)c([N+](=O)[O-])c1,4.13%
20,Cc1ccnc(N2CCC(C(=O)NCc3ccc(F)cc3)CC2)n1,-12%
21,Cc1nnc(NC(=O)c2ccc3ccccc3c2)o1,10.9%
22,CCOc1ccc2nc(NCCCNC(=O)c3cc(OC)c(OC)c(OC)c3)c(C#N)cc2c1,-51.3%
23,O=C(NCc1ccco1)c1ccccc1F,7.62%

row,SMILES,"hERG current change (%, negative = inhibition) at 10uM"
1,CCCNC(=O)c1cccc(COCC(F)(F)F)c1,-2.57%
2,CCOc1ccccc1CN1CCNC(=O)C1CC(=O)NCCN1CCOC1=O (centres unmarked),16.6%
3,O=C(N/N=C/c1ccncc1)C1CC1(c1ccccc1)c1ccccc1 (centres unmarked),-24.9%
4,O=C(O)C1CCCCC1C(=O)NCc1ccccn1 (centres unmarked),22.3%
5,O=C(N/N=C/c1c[nH]c2ccccc12)c1ccc2c(c1)OCCO2,-12.5%
6,CC(=O)Cc1nsc(NC(=O)c2oc(-c3ccccc3Cl)cc2C)n1,14.6%
7,O=C(CC(C(=O)O)C1CCCO1)NCc1ccccc1 (centres unmarked),-0.104%
8,CSc1ncccc1C(=O)Nc1ccc(S(=O)(=O)Nc2nccs2)cc1,-4.52%
9,COc1ccc(OC)c2sc(N(CCCN(C)C)C(=O)CCS(=O)(=O)c3ccccc3)nc12.Cl,-70.5%
10,O=C1Nc2cc(Cl)c(Cl)cc2N(O)N1c1cccc(Cl)c1,21%
11,CC(=O)N(CCC(c1ccco1)C(C)C)Cc1ccc(Cl)cc1 (centres unmarked),-20%
12,Cc1cccc(CSc2nnc(N)n2-c2ccccc2)c1,-7.13%
13,Cc1cc(C)cc(C(=O)NCCCc2ccccc2)c1,-4.26%
14,O=C(CSCc1ccc(Br)cc1)NCCc1ccccc1,-12.8%
15,COc1ccccc1CNC(=O)C1CCN(C(=O)NC2CCCCC2)CC1,10.6%
16,Cc1cccc(C)c1NC(=O)NN=C1CCCCC1,12.8%
17,Cc1ccc(S(=O)(=O)N(C)C)cc1NC(=S)NC(C)CCCC(C)C (centres unmarked),-3.02%
18,c1csc(-c2nn3c(Cn4cnc5ccccc54)nnc3s2)c1,4.33%
19,CC#CC(=O)N1CCC(n2nccc2NC(=O)c2ccc3c(c2)OCO3)CC1,-11.4%
20,CCCc1nc2c(nnn2Cc2ccccc2Cl)c(=O)[nH]1,64.6%
21,COc1ccc(NS(=O)(=O)c2cc(NC(=O)c3ccccc3F)ccc2N2CCCC2)cc1,4.48%
22,CC(=O)C1=C(O)C(=O)N(Cc2ccco2)C1c1ccccc1F (centres unmarked),19%
23,Cc1nc(SCC(=O)c2ccc(F)cc2)n[nH]1,10.1%

row,SMILES,"hERG current change (%, negative = inhibition) at 10uM"
1,O=C(c1ccc(-c2cccc(C(F)(F)F)c2)o1)N1CCOCC1,-21.8%
2,Cc1ccc(C)c(NC(=O)CCC(=O)N/N=C/c2ccc3c(c2)OCO3)c1,9.41%
3,C/C(=N\Nc1ccc(Cl)c(C(=O)O)c1)c1ccc[nH]1,10.6%
4,CC(C(=O)Nc1ccc(N2CCOCC2)cc1)N1C(=O)NC(C)(C)C1=O (centres unmarked),17.6%
5,COc1ccc(C2/C=C\CN(C(=O)C3CC3)CC(=O)N2Cc2ccc(F)cc2)cc1 (centres unmarked),-7.06%
6,CC(=O)N1CCN(C(=O)COc2ccccc2C(=O)Nc2ccccc2)CC1,-53.2%
7,CCOC(=O)c1cc2c(=O)n3ccccc3nc2n(Cc2ccco2)c1=NC(=O)c1ccccc1OC,-68.9%
8,COc1ccc(CCC(=O)OCC(=O)N(C)c2c(N)n(Cc3ccccc3)c(=O)[nH]c2=O)cc1,10.1%
9,O=C(NC1CCSc2ccccc21)c1cccc(OC(F)F)c1 (centres unmarked),-43.3%
10,COC(=O)C(Cc1ccccc1)OS(N)(=O)=O (centres unmarked),16.1%
11,Cc1cccc(NS(=O)(=O)c2cccc(C(=O)NCC(C)(C)N3CCOCC3)c2)c1,4.99%
12,COc1ccc(S(=O)(=O)N2CCCC2C(=O)Nc2ccc(O)cc2)cc1 (centres unmarked),-1.6%
13,CCOc1ccc2ncc(S(=O)(=O)c3ccccc3)c(N3CCC4(CC3)OCCO4)c2c1,-42.4%
14,CC1CC(C)CN(C(=O)CNC(=O)c2sc3ccccc3c2Cl)C1 (centres unmarked),-43.2%
15,C=C(C)COc1ccc(-c2[nH]ncc2Oc2cccc(OC)c2)c(O)c1,13%
16,CC(C)c1nc(N2CCOCC2)c(C#N)c2c1CCCC2,2.45%
17,COC(=O)c1ccc(N/C=C\C(=O)c2ccc3c(c2)OCO3)cc1,9.01%
18,O=C(CSc1ccc(-c2ccc(Cl)cc2)nn1)N1CCCc2ccccc21,-7.81%
19,COc1cc2cc(CN(Cc3cccnc3)C(=O)Nc3ccccc3F)c(=O)[nH]c2cc1OC,8.25%
20,CN(C)c1ccc(NC(=O)CN2CCN(S(=O)(=O)c3cc(Cl)ccc3Cl)CC2)cc1,-1.09%
21,NNC(=O)c1ccc(Cn2cc(Br)cn2)o1,2.95%
22,O=NC1=C(c2c(O)[nH]c3ccccc23)CCCC1,-6.02%
23,Cl.N#Cc1cccc(C(c2nnnn2C2CCCC2)N2CCCCCC2)c1 (centres unmarked),-32.4%

row,SMILES,"hERG current change (%, negative = inhibition) at 10uM"
1,CCOC(=O)c1cnc(-c2ccccc2)nc1N1CC(C)OC(C)C1 (centres unmarked),-5.42%
2,CCn1c(COc2cccc(C)c2)nnc1SCC(=O)Nc1cccc(C(=O)O)c1,9.41%
3,N#CCSc1nnc(-c2cccnc2)n1-c1ccccc1,-7.93%
4,COc1ccc(NS(=O)(=O)c2cccc(C(=O)NCCCN3CCOCC3)c2)cc1,5.96%
5,COc1cccc(C(C(=O)NC(C)(C)C)N(Cc2ccco2)C(=O)CCC(=O)Nc2cc(C)on2)c1OC (centres unmarked),6.21%
6,COC(=O)c1ccc(CN2C(=O)NC3(CCCCC3C)C2=O)o1 (centres unmarked),-11.4%
7,CCC(C)[C@H](NC(=O)[C@@H]1Cc2ccccc2CN1)C(=O)Nc1ccc2c(c1)OCO2 (some centres unmarked),-6.43%
8,COc1ccccc1CCc1nnc(CCC(=O)NC(C)Cc2cccc(C)n2)o1 (centres unmarked),6.37%
9,CCC(C)C(NC(N)=O)C(=O)Nc1ccc(S(=O)(=O)Nc2ccc(OC)cc2)cc1 (centres unmarked),17.7%
10,O=C(Nc1ccccc1)Nc1nncs1,-10.3%
11,O=C(NCCN1CCOCC1)Nc1ccc(Cl)cc1Cl,-13.1%
12,CN(C)C(=O)CSc1nc(-c2ccccc2)c(-c2ccccc2)o1,-12.2%
13,CCOc1ccc(C(=O)NCC(=O)N2CC=C(c3ccccc3)CC2)cc1OCC,-62.9%
14,CN(C)c1nc(N)nc(Cn2ccnc2)n1,-14%
15,COc1ccccc1N(CC(=O)Nc1c(C)n(C)n(-c2ccccc2)c1=O)S(=O)(=O)c1ccc(C)cc1,-21.5%
16,Cc1ccc(C(=O)Nc2c[nH]c(=O)[nH]c2=O)cc1,19%
17,CCOc1ccccc1C(=O)N1CCN(c2ccc(C(F)(F)F)cn2)CC1,2.27%
18,Cc1cc(=O)n2nc(-c3ccc(C(F)(F)F)cc3)sc2n1,-2.3%
19,COc1cc(CNCc2cccs2)ccc1OCc1cccs1.Cl,-18.5%
20,Cc1cc(NC(=O)Cc2ccccc2C)no1,4.79%
